# Assay results from the supplement of paper PMC3334620.
# In all, about 33,000 sequences were measured (“E-score (-0.5 to 0.5)”: median about -0.035, highest 2% from about 0.34 on). The list shows a part of the results.
# Target: T1, Mot3 (UniProt P54785)
# T1 sequence: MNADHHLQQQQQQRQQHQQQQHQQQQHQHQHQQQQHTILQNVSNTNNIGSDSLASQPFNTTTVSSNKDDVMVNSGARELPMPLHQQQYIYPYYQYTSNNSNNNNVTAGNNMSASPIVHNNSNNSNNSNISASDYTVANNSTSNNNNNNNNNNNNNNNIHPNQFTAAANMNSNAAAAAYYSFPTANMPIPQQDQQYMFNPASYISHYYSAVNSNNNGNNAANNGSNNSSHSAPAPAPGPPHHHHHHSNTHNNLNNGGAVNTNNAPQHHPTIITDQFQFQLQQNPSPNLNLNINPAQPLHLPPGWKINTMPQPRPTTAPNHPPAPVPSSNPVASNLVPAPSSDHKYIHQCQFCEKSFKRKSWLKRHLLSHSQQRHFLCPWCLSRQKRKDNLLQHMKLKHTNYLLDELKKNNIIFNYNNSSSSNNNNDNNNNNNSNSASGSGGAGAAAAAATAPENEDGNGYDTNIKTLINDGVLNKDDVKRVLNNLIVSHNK
# Experiment: PBM E-score (8-mer binding enrichment) (E-score (-0.5 to 0.5)); higher = stronger / more preferred TF binding; most listed sequences are background and not binding sites
# Details: protein concentration: 200 nM; construct: GST-full length
# Method in brief: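 For each ungapped eight-base word taken together with its reverse complement, the Universal PBM Analysis Suite assigned an E-score. Binding data came from GST-tagged yeast transcription factors, applied at about 100-200 nM, on universal all-10-mer Agilent arrays made double-stranded by primer extension. Fluorescent anti-GST marked bound protein, and scans were normalised with masliner.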
row,Sequence,PBM E-score
1,ATCCGTGA,-0.141
2,GACCTCGA,-0.139
3,ACTAGATC,0.053
4,ATGCGTGG,-0.214
5,CCCGGCAG,-0.235
6,CAAGGATC,-0.0944
7,ACGAAAGA,0.163
8,AGGCCCGA,-0.214
9,ATTTATCA,0.0158
10,CATGTTTC,0.24
11,CTCGTAAA,0.231
12,TGATTGAA,0.117
13,CGCCCTAG,-0.386
14,CACGTGGA,0.103
15,AACTGTCC,-0.122
16,ATGACGCG,0.219
17,CTCACTTA,-0.0459
18,GACTGCTC,-0.202
19,CGGAACAG,-0.216
20,GAAGCCGC,-0.242
21,TCCCACCA,-0.0956
22,GATAGCAC,-0.204
23,CAGGCATA,0.319
24,GGGACGGA,-0.382
25,AAGTACGA,0.0191

row,Sequence,PBM E-score
1,AACCGATT,-0.0255
2,CGAACCAC,-0.252
3,AGTGCTCC,-0.241
4,AGAATCAG,-0.105
5,GAGTAATC,0.108
6,GCTGGACC,-0.332
7,GTAAATCA,0.195
8,AAAATGTT,0.254
9,ATGTATCA,0.222
10,GAGCGAAA,-0.0548
11,CCCAGACC,-0.181
12,CGAGTCCA,-0.266
13,ACTTAACT,-0.00568
14,CTCGGGCC,-0.12
15,CAATGGAC,-0.189
16,CTGGGCTC,-0.148
17,CCGCCCAG,-0.106
18,GACTGCTA,-0.251
19,ACTGCATA,0.093
20,ATTTAGCG,-0.0648
21,ACCACAAC,0.177
22,CACACTAA,0.0759
23,ACTCGTAT,0.0531
24,AGAGACCC,-0.235
25,AGGCTGAA,-0.208

row,Sequence,PBM E-score
1,GTGAGCGA,-0.185
2,CAGGAGCG,-0.138
3,CCGTCTCC,-0.265
4,AAGGGTGA,-0.147
5,GACCGTGC,-0.0459
6,AATATCCT,-0.148
7,GTCCATAA,-0.154
8,ATCCGGTC,-0.336
9,CCGGTCAG,-0.335
10,GCCGAAGA,-0.14
11,GGGGCAAA,-0.144
12,AAATGCCT,0.377
13,GACATGTA,0.355
14,CATCTAAA,-0.021
15,ACTGCAAC,-0.182
16,GCCTAGCA,-0.0583
17,CCGCGGCC,-0.214
18,CGCTGCCG,-0.194
19,TAACTAAA,0.104
20,GACGGGCC,-0.242
21,CAGAGTAC,0.0416
22,ACGTCTTA,0.0845
23,GCTAAAAA,-0.0959
24,AGAATCTG,-0.164
25,CACGCATA,0.0801

row,Sequence,PBM E-score
1,CAACGCTG,-0.0398
2,TGCCTAAA,0.476
3,AGCGTTTA,0.122
4,AGCGCCCA,-0.353
5,GAAGTGAA,-0.0897
6,GTCCGCTA,-0.0907
7,ACTAGGTG,0.125
8,ATCTTACC,-0.152
9,GCATAGGA,0.0984
10,ATCTCCCA,-0.211
11,GCGCATAA,-0.29
12,ATTAGGTA,0.277
13,GCGCCGCA,-0.00014
14,CACTAACA,0.204
15,ATCGTCAT,0.11
16,ACACGAAC,0.23
17,CGTTTCAC,-0.056
18,CGGGGCAA,-0.198
19,CCTTCAAC,0.247
20,CCCGTACG,-0.27
21,CCTGCCTC,-0.104
22,ACGACTGG,-0.096
23,CTGTCACC,-0.117
24,CATGTCAG,0.251
25,CTTTAAAG,0.178

row,Sequence,PBM E-score
1,CTAGAATC,-0.0638
2,GCTTGGCC,-0.362
3,CATCACTC,-0.0208
4,TCAGCCCA,-0.152
5,GAAGCCTA,-0.0994
6,GATCAAAC,-0.125
7,AGTGAGCC,-0.0781
8,AGTTGACG,-0.0717
9,CCCTCAGA,-0.156
10,ATGCCTCC,0.0564
11,CGGACACA,-0.162
12,ACCGAAGT,0.0497
13,GGGAGGAC,-0.126
14,AATAGTCC,-0.195
15,GAACCCCC,-0.261
16,CAGGATCC,0.036
17,AGACTATA,-0.0106
18,AATTTCCT,0.364
19,CGACGTCA,-0.0551
20,CAATTAAA,0.123
21,AGTAAACC,0.0818
22,TTAGAGAA,-0.141
23,CACGGACG,0.143
24,CGCTTGCC,0.193
25,GCCTGGCA,0.0408

row,Sequence,PBM E-score
1,AATAAAAT,0.155
2,ATCTCCAC,-0.102
3,AGCACCGG,-0.32
4,GGTGTAGA,0.139
5,AGACATCT,-0.289
6,AGCATCCT,-0.268
7,AAGCGTTC,-0.0409
8,GATTCCCA,-0.0771
9,CGAATTCC,-0.147
10,AGTCCCAC,-0.296
11,GAGCATAC,-0.01
12,ACAACCAA,0.00653
13,AAAGCTTA,0.0241
14,TCACTTCA,-0.22
15,CGAAATAA,0.00932
16,GCAACAAC,0.138
17,ATGCAATA,-0.00066
18,AGGTTTGA,-0.1
19,AAGAGGAA,0.221
20,CTGGTAAG,-0.143
21,ACATATTA,0.302
22,TCAGCGCA,0.0776
23,ATGTGTGG,0.0133
24,GATGCGCA,-0.151
25,GGCGGTAC,-0.279

row,Sequence,PBM E-score
1,ATTAGTCC,-0.0419
2,AAGACACC,0.00535
3,AAACTAAC,0.262
4,AGACAACA,0.0804
5,TCTCTCAA,-0.056
6,ACAAATAT,0.161
7,GGAGCGTA,0.155
8,ACTCGTTA,0.0915
9,AGCGGCAT,-0.0525
10,CCGACTAG,-0.237
11,AAATTTAT,0.118
12,CTTAATGA,-0.005
13,GACGATAA,-0.137
14,GATCTTCC,-0.23
15,AATCACGG,-0.101
16,AGTATCAC,-0.0167
17,TTCACCAA,0.128
18,GTCCAGGA,-0.00926
19,GCATTTCC,0.114
20,ATGAGGAG,-0.194
21,AGAAGCCA,-0.291
22,ATCGATGC,0.116
